Source: the RNAGym collection of RNA variant scans (doi:10.7554/elife.90254)
The source gives no read counts; variants with many changes may rest on few reads.

B1: LINE1-full (parent)
chain: UACGUAGGUGGUUUUCCCCUGAUAGUGCUAAGGGGGCCUGGAAGUUUGGACUGGGCAGAGCUCAACACAGCGUGGCAAAGUGGCUGUGGCUAGACUGCCUCUCUGGAUUCCUCGUCACUCAGCAGGGCAUCUCUGAGAGAAAUGCC

Variants of: B1
Test: self-cleavage, relative activity (ratio to wild type); higher = more cleavage; in vitro, sequencing; the parent is a self-cleaving ribozyme

Row | Variant | self-cleavage
1 | U52C A79G U112C | 1.15
2 | U52C A92U U112C A129U | 0.58
3 | U52C A94U A140G | 0.21
4 | U52C A107G G126A A136G | 1.53
5 | U52C A136G U143C | 2.04
6 | U52C C76G U81A U85A G135A | 0.05
7 | U52C C84U U115C U119A A142G | 0.17
8 | U52C C110U C120U | 1.14
9 | U52C C116U A140G | 1.63
10 | U52C G54A U81G U104A | 0.23
11 | U52C G58A A129G | 0
12 | U52C G60A A141G | 0.06
13 | U52C G72A A92G A124G A136G | 0.05
14 | U52C G72A U102A A121U | 1.02
15 | U52C G74A A94G A129G A136G | 0.15
16 | U52C G80U U119A U130C | 0.34
17 | U52C G86U A129U | 0.08
18 | U52C U62A A64U A94G | 0
19 | U52C U62A A107U | 0.05
20 | U52C U73C A77U A142G C145U | 2.63
21 | U52C U81A U134C G135A | 2.3
22 | U52C U85A A124U | 0.15
23 | U52C U85C A141G | 0.07
24 | U52C U87C A140G | 0.11

Row | Variant | self-cleavage
25 | U52C U87C G97A | 0.08
26 | U52C U87C U130C | 0
27 | U52C U96C C98A A140U | 0.06
28 | U52C U100A A124G | 0.51
29 | U52C U104C A107G | 0
30 | U52C U112C A124U A141G | 1.31
31 | U52C U119A A136U | 1.71
32 | U52C U119C A124U | 0
33 | U52C U119C A136G | 1.84
34 | U52C U132C A136G | 0
35 | U52G A57G G75U A92G A140G | 0.2
36 | U52G A65G U96C | 0
37 | U52G C118U A142G | 1.04
38 | U52G G75A U104C U132C | 1.58
39 | U52G U62A G105A | 0.03
40 | U52G U96A A140G | 0.02
41 | U52G U104C U132C A140G A141G | 1.41
42 | G53A A59G A65U U85C | 0.04
43 | G53A A64G U73A A142G | 0.27
44 | G53A A67G A69C | 0
45 | G53A A69G U91A G126A A142G | 0.25
46 | G53A A69G U130C A140G | 0.23
47 | G53A A78G U87C C113A A138G | 0.04
48 | G53A A92C G106A | 0.14

Row | Variant | self-cleavage
49 | G53A A129G G144A | 1.27
50 | G53A C63A A140G | 0.05
51 | G53A C76U A129G | 2.36
52 | G53A U73A U85C | 0.07
53 | G53A U85A U134C A140G U143C | 0.01
54 | G53A U85C U87C U112C G125U | 0.07
55 | G53A U96C A121C | 0.04
56 | G53A U100A U115C | 0.98
57 | G53A U104G U108C | 2.07
58 | G53A U115C C118U | 1.07
59 | G53C G114A U134C A141G | 1.73
60 | G53U A65G C103U | 0.05
61 | G53U A77G U81C U115A | 1.69
62 | G53U G89A U102C | 0.05
63 | G53U U62A A79G | 0
64 | G53U U81C U85C | 0.25
65 | G53U U85C U100C U108C A129G | 0.16
66 | G53U U85C U112C U119C | 0.08
67 | G54A A57C U73C | 0.02
68 | G54A A57G A77G A129G | 0.26
69 | G54A A57G A78G | 0.14
70 | G54A A59G A78G | 0.29
71 | G54A A65G U100C G126A | 0.16
72 | G54A A65G U115C | 0.38

Row | Variant | self-cleavage
73 | G54A A69U G127A U130A U143A | 0.05
74 | G54A A77G U91A U109C A117C | 0.55
75 | G54A A77G U100C | 0.31
76 | G54A A77U U130A A140G | 0.55
77 | G54A A79G U115C A141G | 0.24
78 | G54A A92G U130C | 0.09
79 | G54A A94G A141G | 0.04
80 | G54A A94U A124G | 0.11
81 | G54A A138G U143C | 1.13
82 | G54A A140G A141G | 0.79
83 | G54A C63U A77G A79G U134A A142U | 0.15
84 | G54A C123U U130G | 0.34
85 | G54A G70A U87C | 0.02
86 | G54A U62A A94G | 0.07
87 | G54A U62A U112C A136U | 0.02
88 | G54A U73C A77U U115C U134C | 1
89 | G54A U73C A78U A117U A129U A136G | 1.51
90 | G54A U85A U112C | 0.02
91 | G54A U96C C110U A142G | 0.04
92 | G54A U100C A117G U130C | 0.2
93 | G54A U104C A136G | 1.4
94 | G54A U109C A142G | 0.18
95 | G54A U112A A141G | 0.89
96 | G54A U119C U130C | 1.68

Row | Variant | self-cleavage
97 | G54C A57G U96A U130C A142G | 0
98 | G54C C66U A77G U112C A138G A142G | 0.04
99 | G54U A67G A78G | 0.3
100 | G54U A78G G144U | 0.72
101 | G54U A94G C120U | 0.24
102 | G54U A121G U134A | 0.52
103 | G54U U62C A65U A77U U87A U109C | 0.02
104 | G54U U102C U119A U134C | 0.35
105 | G54U U119A A124G | 0.32
106 | G55A A59G A92G | 0
107 | G55A A59G A121G | 0
108 | G55A G60U U102A A117U U119C A124G | 0.01
109 | G55A G75A A142G | 0.12
110 | G55A G122A G126A A140G A142G | 0
111 | G55A U73G A141G | 0.12
112 | G55A U81C U130C A138G A142G | 0.37
113 | G55A U85A U87C | 0.04
114 | G55C G72A A94G | 0.03
115 | G55U A79U A117U | 0.66
116 | G55U U96A A107G | 0.03
117 | G55U U104A U143C | 0.03
118 | C56A A65G U134A | 0.18
119 | C56A U87A C113U G114A U132C | 0.03
120 | C56G U87C U112C | 0

Row | Variant | self-cleavage
121 | C56U A64G G139U | 0.06
122 | C56U A77G A136G | 0.35
123 | C56U C61U U115G A121G A141G | 0.02
124 | C56U G83A U91C U109A | 0.02
125 | C56U U62A U109A A136G | 0.01
126 | C56U U62A U132C | 0.04
127 | C56U U62C A77G | 0.07
128 | A57C U81A U115C | 0
129 | A57C U85A A141G | 0.04
130 | A57C U85C C110U | 0.11
131 | A57C U91C U134C | 0.18
132 | A57C U104C A138G A142G | 0
133 | A57C U109C A136U U143C | 0
134 | A57G A59G A117U | 0.15
135 | A57G A59G A121C | 0.24
136 | A57G A59G U81A | 0.07
137 | A57G A59G U96A U108G U143G | 1.31
138 | A57G A64G U73A A140G | 0.29
139 | A57G A64G U134A A138G | 0.33
140 | A57G A64U U112A A121C | 0.15
141 | A57G A65C A78G | 0.13
142 | A57G A65G A121U | 0.13
143 | A57G A65G C71A U73C A142G | 0.25
144 | A57G A65G U102C | 0

Row | Variant | self-cleavage
145 | A57G A65U A69G | 0.07
146 | A57G A67G C110U | 0.27
147 | A57G A67U A69G A121U | 0
148 | A57G A67U U143A | 0.19
149 | A57G A69G A77G G114A | 0.81
150 | A57G A69G A94U U96A A136G | 0
151 | A57G A69G A140U | 0.39
152 | A57G A69G C76U U81A G89A U119C | 0.03
153 | A57G A69U U112C C128U A141G | 0.05
154 | A57G A77G U112C | 0.61
155 | A57G A77U A136G | 1.54
156 | A57G A77U U91C | 0.8
157 | A57G A78G A107G A121U | 0.22
158 | A57G A78G G114A | 0.31
159 | A57G A78G U130C | 0.71
160 | A57G A78U U85C | 0.11
161 | A57G A79G A136G | 0.66
162 | A57G A92U U102A | 0.55
163 | A57G A94G U134G | 0
164 | A57G A124G A136G | 0.37
165 | A57G A124G G137A | 0.93
166 | A57G A124U A142U | 1.05
167 | A57G A124U U130C | 0.94
